For this data set the following is noted: pH values around neutral. From the text: The novel protecting group 2-bromo-2-(2-nitrophenyl) acetic acid (BNPA) was used to make all proteins photactivatable. This water-soluble reagent places an a-carboxy-2-nitrobenzyl (CNB) group on sulfhydryl groups. BNPA was produced in high yield by the bromination of 2-nitroacetyl chloride, followed by hydrolysis of the acyl chloride group.

Structures are written as SMILES.

As for `O=C(O)C(Br)c1ccccc1[N+](=O)[O-]` (stereo not shown) [BNPA, 2-bromo-2-(2-nitrophenyl) acetic acid], the water solubility entry is “highly water-soluble”.
